# Data from the RNAGym collection of RNA variant scans (doi:10.1073/pnas.2313332121).
# Variants at the background level are over-represented here.
# B1: TPR 5TU (parent)
# chain: GGAUCUUCUCGAUCUAACAAAAAAGACAAAUCUGCCACAAAGCUUGAGAGCAUCUUCGGAUGCAGAGGCGGCAGCCUUCGGUGGCGCGAUAGCGCCAACGUUCUCAACUAUGACACGCAAAACGCGUGCUCCGUUGAAUGGAGUUUAUCAUG
# Variants of: B1
# Assay: polymerase ribozyme fitness, log enrichment relative to wild type (log ratio); higher = more active; in vitro selection for triplet polymerase activity
# Method in brief: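 Each subunit of a heterodimeric triplet polymerase ribozyme was represented by a PCR-built, transcribed mutant library that underwent triplicate single-round in vitro selection with frozen incubation at −7 °C. Extended constructs were recovered by gel excision, streptavidin-bead capture and RT-PCR, and Illumina sequencing of input and output libraries kept genotypes with ≥10 input reads and ≥1 read per output. Fitness is the logarithm of genotype enrichment relative to wild-type enrichment, from inverse-variance-weighted replicate averages, with a logarithm base of 2.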
row,Variant,polymerase ribozyme fitness (log ratio)
1,A3U A28C G84A G117U A119U G124U,≤ -4.2
2,A3G A23C A91C C95U C99U C118G,≤ -4.2
3,A3U A22C C87A G92U,-0.18
4,A3U C38A C85G C99U G124A,-3.77
5,A3U C51G G86A A91U C125U,≤ -4.2
6,A3U A16C A52U C57U C76U G86U,≤ -4.2
7,A3G A41U A47G U101G G136U,≤ -4.2
8,A3G U4G C32U U56A G74A G81A A120G,-0.184
9,A3U A60G G70C G80C G86A U135G U144A,≤ -4.2
10,A3U U45G C87U U90G C114G A138U G141C,≤ -4.2
11,A3U A28C U61A C96U C99U U102C C149U,≤ -4.2
12,A3U A40U G50C G100A U111C U145A,≤ -4.2
13,A3G A49G U53A A106G G117A C123U,≤ -4.2
14,A3G U13A A39U U55A A66G C72A C108U,≤ -4.2
15,A3G C8A U44A A47C U56A G84C C87G,≤ -4.2
16,A3U C35U A91U,≤ -4.2
17,A3U G68U U78A C79A C85U C108A C114A,≤ -4.2
18,A3U A28U U44G C72G G83U G86U G141A,≤ -4.2
19,A3U G59U G80C G92U A113G U127G,≤ -4.2
20,A3U A28C U55G U56G C63G G86C A91C,≤ -4.2
21,A3G A40G C57A C72U C87A,≤ -4.2
22,A3U C5G C51U G67A U127A,≤ -4.2
23,A3U G68U C69G U101G,≤ -4.2
24,A3U A17C G94C,-0.825

row,Variant,polymerase ribozyme fitness (log ratio)
1,A3U U7G A37U,≤ -4.2
2,A3G C8G G46A U82C G92A C96G A122U C125U,≤ -4.2
3,A3U C5G A37G C95U U130G U144C,≤ -4.2
4,A3U A73G G86U C129A A137G,≤ -4.2
5,A3G A19U U55C G84A,-0.956
6,A3G C72A C75G C96U A98U,≤ -4.2
7,A3G C38U U45A U56A G58C G59U C75A U90C C93U C103G A138C,≤ -4.2
8,A3G C27G C35U G80U,≤ -4.2
9,A3G A22G U45G,≤ -4.2
10,A3G C5A A26C C87A,≤ -4.2
11,A3U U55A G62A U90C G94A G140C,≤ -4.2
12,A3C U45G G50A G67C C85G A137G,≤ -4.2
13,A3U U55A G88C C105U A107G G117U G141C,≤ -4.2
14,A3U U7G A49C C85U A142U,≤ -4.2
15,A3U C14G A29C C38U G67A G81A C87U G92C A121G C132A U144A G152A,≤ -4.2
16,A3U C96U A97G,0.661
17,A3C U4A U6C U15C A17G C38U C54U C72U G86U U127G,≤ -4.2
18,A3G C8G A73G C85U A91C G94U A122G G141C,≤ -4.2
19,A3U A20U U33G C43U G48C C57U C85U C103A,≤ -4.2
20,A3U C18G A28U C38U G92U C96G C132A G141A U145G,≤ -4.2
21,A3U A52G C96G C131U,-0.0465
22,A3C U15C C18G A23C G48A A49C G50C G68C G92A C96G,≤ -4.2
23,A3C U4A,0.257
24,A3C U7A U13G A60C G70C C79U,≤ -4.2

row,Variant,polymerase ribozyme fitness (log ratio)
1,A3G G94C,-1.07
2,A3U A30U G34A G50A U77G U82G G100A A122U G143U,≤ -4.2
3,A3G A26C C63A G71A C105G A107G,≤ -4.2
4,A3U C14A C35U A47C U55A A138C,≤ -4.2
5,U4A A12G C35U C38A A47G C57A A66C C75G A137C G141C,≤ -4.2
6,A3G A24C A41C A150C,≤ -4.2
7,A3G A12G U56A C75U C76U C93U A97U,≤ -4.2
8,A3U C38U U55A A60C G68U G71A A107U G133C A137G U139C,≤ -4.2
9,A3C U7A C51U U55A A97G U102G C105U,≤ -4.2
10,A3U A26C G71A,≤ -4.2
11,A3G G94U C103U U127C U134C G136A,-3.9
12,A3G U31C A37C G84A A107C G152U,≤ -4.2
13,A3C U4A U6C U15C A17G C38U C54U C72U G86U C95U G126C G136C U139A G152A,≤ -4.2
14,A3U G88U,≤ -4.2
15,U4A,-0.014
16,A3G U77A C79U C85U C96U C125G A138G,≤ -4.2
17,A3U G58A U78G C87G,≤ -4.2
18,A3U A24G C36U U56A G59A,≤ -4.2
19,A3G U13G A39C G48U C76G C103A C116A,≤ -4.2
20,A3U C14U A17G G48A C99U A122G C123A,≤ -4.2
21,A3U C57A C72U G86A C116G G140U,≤ -4.2
22,A3U U6A A26G G34A A39U G88U G92A U101G A106U,≤ -4.2
23,A3G G25C A41C A49C U56A G86A U101G,≤ -4.2
24,A3U U31G C35U G50C A66C C85U A121G,≤ -4.2

row,Variant,polymerase ribozyme fitness (log ratio)
1,A3U U4G G42A U82G C96A A113C,≤ -4.2
2,A3G U4G C93G A113C,≤ -4.2
3,A3U A26U C93U C95U C99G C125G,≤ -4.2
4,A3U C8A A17G U56A G59A C85A A120G,≤ -4.2
5,A3G C5U C14U U15C U55A G67C C87U G88U A110U,≤ -4.2
6,A3U C85U A91U C95G G140U,≤ -4.2
7,A3G C51A U53G G58A A89U C96A A142C,≤ -4.2
8,A3U G86U C105G G136U,≤ -4.2
9,A3U U53A G84U A138G G152A,≤ -4.2
10,U4A A12C C63U G83U A107C C116U U144A,≤ -4.2
11,A3U A19C A37G A49U C51U C85U G92A C96A A97G U144A U146G,≤ -4.2
12,A3G A16G A24C A49G G80C,≤ -4.2
13,A3U A24G G81A G83U A89U A110C,≤ -4.2
14,A3C U55G C87G,≤ -4.2
15,A3U A21U G58C G68C U77C U144C,≤ -4.2
16,A3U G25U C27U C36A C87U C105G C118U G152C,≤ -4.2
17,A3U C8U,-0.611
18,A3U G50C U53A G68A C76G G94U A97G A120C C125U,≤ -4.2
19,A3U G50C U77C A91C A97U,≤ -4.2
20,A3U C8A C36A G48A A73C G81A G92A,≤ -4.2
21,A3C U6G G84U U144A,≤ -4.2
22,A3C U6A A20U A23U C87A G133C G136U,≤ -4.2
23,A3G U6G A12U C14A U53G G84A A119U A147C U151G,≤ -4.2
24,A3G C14G U55A U56A C85U,-4.18

row,Variant,polymerase ribozyme fitness (log ratio)
1,A3G C35U U55A U104A A150G,≤ -4.2
2,A3G A21U U53A U78A C93U C108U,≤ -4.2
3,A3U C114U C118G A137C G141C,≤ -4.2
4,A3G U56A G58C U61A G86U C87A G100U,≤ -4.2
5,A3U A91C,-3.34
6,A3G C14G A29C C93U A107U,≤ -4.2
7,A3U G58U U78G C79U G80A C85U C96U A106G A147C,≤ -4.2
8,A3G U4G U15A C27U C38A C57G G92A A119U,≤ -4.2
9,A3U C85A,-1.48
10,A3U A26C C54U U102A G124U U144C U151A,≤ -4.2
11,A3G C36U G80U C95A,≤ -4.2
12,A3U C14U G50C C75U C93U,≤ -4.2
13,A3G U15G G71U U77C,≤ -4.2
14,A3U A21U G50U G58A U77A G100U A137G,≤ -4.2
15,A3C U56G C57G C116G,-2.89
16,A3U C36U G67U C95A,≤ -4.2
17,A3U A28C C63U C85U A142C G152U,-3.91
18,A3G C18U C27G A28U U78A,≤ -4.2
19,A3U U9C A17C A29C C57U A64G A73G G83C A115C A119G,≤ -4.2
20,A3U C36U C95U,-3.09
21,A3G A29C C93U G124U,≤ -4.2
22,A3U C8G C54G G71A C93G U146G,≤ -4.2
23,A3U A21C U77G C96G,≤ -4.2
24,A3G C54G C87A A98C G133A,≤ -4.2

row,Variant,polymerase ribozyme fitness (log ratio)
1,A3G G70A C96G C99U U127C,≤ -4.2
2,A3U C35A C108G,≤ -4.2
3,A3U A22G C43U G68A U78G G92A A107U A110G A113G U151C,≤ -4.2
4,A3U C76G C96A A122U,≤ -4.2
5,A3G A52U C54U U77G A121G A122G A137G,≤ -4.2
6,A3U A23U U53A A110C,≤ -4.2
7,A3G A47U G88A A121C G140A,≤ -4.2
8,A3G A29U U31G C105U C116G G124A,≤ -4.2
9,A3C U4G G58C C93U C149U,-3.55
10,A3U A12C G83C U127G U134C,≤ -4.2
11,A3U C38A C87U C95U G128C,≤ -4.2
12,A3G A26C G68A G84C C96U C108U G136C,≤ -4.2
13,A3U C14G C38U G70A A91U C99U U101G G136U G141A,≤ -4.2
14,A3C U7G A12U A28U C87U,≤ -4.2
15,A3G G70C C87A,≤ -4.2
16,A3U A47C C105U A120C G124A,-1.78
17,A3U A37U C96U C118G,-3.38
18,A3G A12C A24C A29U A41G A47U G83C A97U C129A U130C,≤ -4.2
19,A3G C18U A39C G84A U111C C129A,≤ -4.2
20,A3U U61G C95U,-1.39
21,A3U A23G C38A G80U U82C,≤ -4.2
22,A3U A41U C85U C118U A119C U139G G141A,≤ -4.2
23,A3U G50C U61A G88A C99G U135C U146C,≤ -4.2
24,A3G A39U G59C G83U,-3.56

row,Variant,polymerase ribozyme fitness (log ratio)
1,A3G U4A A39G U56A G74U C87U C96A A137U,≤ -4.2
2,A3G U4A C38A A39C G59C G83U A137U,≤ -4.2
3,A3G A39U C85G A97U G140C,≤ -4.2
4,A3G A40U C69U G84C G143C,≤ -4.2
5,A3U C14A G42U A52G G140A U144C,≤ -4.2
6,A3C U6G A26U G67C G83C A106G C118A U145C C149G,≤ -4.2
7,A3U C75G G81A G141U,≤ -4.2
8,A3U U82G U104G,-1.04
9,A3U C54G U78G C85A U127C C149G,≤ -4.2
10,A3G U4A U44A C54U G74C G88U G141C,≤ -4.2
11,A3G U7G C38U A40G C54G C95U U145A,≤ -4.2
12,A3G U31A U44G G62A G94A,≤ -4.2
13,A3U A23U A113U,≤ -4.2
14,A3U U15G C51A G84U U151G,≤ -4.2
15,A3U C32G C75A G84C,≤ -4.2
16,A3U C51U U56G G58C G59A A73G,-3.64
17,A3U A17U C43U C87G G88A,≤ -4.2
18,A3U A16G C35U C87U A106G G133U G136C,≤ -4.2
19,A3G C54U C87A A89G C96A U102G C114A,≤ -4.2
20,A3G C10G C35A G59C C96U A115U C116G C118G U134C G143U U146A,≤ -4.2
21,A3U A37U G70C C85U G92A,≤ -4.2
22,A3C U4A U6A A29G G48U G62C G65C G92A U144A,≤ -4.2
23,A3U C5A A30U A39U A49U C99U G124A,≤ -4.2
